# Laboratory results: PubChem BioAssay AID1345082 (National Center for Advancing Translational Sciences (NCATS), 2018)
# The whole screen tested about 94,000 compounds, of which about 4,000 (4.3%) were called active. The inconclusive results got no clear call from the source; some entries with a clear call stand among them for comparison. The call rests on the fitted dose curve; in most records, active means well fitted inhibition curve with a large enough effect; inconclusive means small, poorly fitted or top-dose-only effect; inactive means no such curve, though single readings can be large or run the other way. Potencies of inconclusive entries are doubtful fits and often do not repeat.
# Experiment: Cytotoxic Profiling in NIH 3T3 Cell Line of Diverse Libraries Using Quantitative High-Throughput Screening; further: nearly all actives have a fitted effect of over 55% in size
# Conditions: NIH 3T3 viability, CellTiter-Glo ATP luminescence, 48-72 h; series mostly up to 96.7 µM
# From the text: Cell-based phenotypic screening is a commonly used approach to discover biological pathways, novel drug targets, chemical probes and high-quality hit-to-lead molecules. Many hits identified from high-throughput screening campaign are ruled out through a series of follow-up potency, selectivity/specificity, and cytotoxicity assays. Prioritization of molecules with little or no cytotoxicity for a more in-depth downstream evaluation influence the future direction of projects, so cytotoxicity profiling of the screening libraries at early stage is essential for increasing the likelihood of candidate success. In this study, we analyzed results from a cell-based cytotoxicity screening campaign, comprising nearly 10,000 compounds in NCATS annotated libraries, and over 100,000 compounds in a diversity library, evaluated in four normal cell lines (HEK 293, NIH 3T3, CRL-7250 and HaCat) and a cancer cell line (KB 3-1, a HeLa subline) with overall screening outcomes, hit rates, pan-activity and selectivity. For the annotated library, we also examined the primary targets and mechanistic pathways regularly associated with cell death. To our knowledge, this is the first study to use high-throughput screening to profile large libraries for cytotoxicity assessment in both normal and cancer cell lines. In summary, the results generated here constitutes a valuable resource for the scientific community and provides insight on identifying cytotoxic compounds with particular mechanisms of action, and prioritizing compounds with suitable cytotoxicity profile for further evaluation.
# NIH 3T3 cells were seeded into white 1536-well plates using a Multidrop Combi peristaltic dispenser (ThermoFisher, Waltham, MA) at a density of 400 cells/well in 5 uL of medium respectively. A pintool (Kalypsys) was used to transfer 23 nL of compound solution to the 1536-well assay plates. After 48 or 72 hr incubation at 37 degree Celsius, 5% CO2 and 95% humidity, 2.5 uL of CellTiter-Glo (Promega) was dispensed into each well using a dispenser (Aspect Automation, St. Paul, MN) with solenoid valves (Lee Valves, Westbrook CT). Plates were left at room temperature for 10 min before imaging the ATP-coupled luminescence using a ViewLux microplate imager (PerkinElmer, Waltham, MA).
# Potency means the concentration at half of the fitted maximal effect; tags describe the fitted curve by direction and shape.
row,Structure (SMILES),Potency
1,CC(C)CNC(=O)[C@@H]1CCCN1c1nccc(Nc2ccccc2Cl)n1,"inconclusive: 79.4 µM [inhibitor, partial curve, poor fit]"
2,c1ccc(-c2ccc3ncc(Nc4ccc(N5CCOCC5)cc4)n3n2)cc1,"inconclusive: 56.2 µM [inhibitor, partial curve, poor fit]"
3,COC(=O)c1cc2n(n1)CCCN(C(=O)C1CCCCn3nnnc31)C2 (centres undefined),inactive
4,CCC(c1cccs1)N1C(=O)[C@H]2CN(S(=O)(=O)c3cc(F)cc(F)c3)C[C@H]2C1=O (some centres undefined),inactive
5,COCCn1nnnc1C1CC2(CCOCC2)C(=O)N1Cc1cccc(C)c1 (centres undefined),inactive
6,CCCCS(=O)(=O)N1C[C@@H](C(N)=O)[C@H](C2CCN(C)CC2)C1,inactive
7,Cc1ncc2n1C(=O)N(C1CCN(Cc3ccc(F)cc3)CC1)C2,inactive
8,O=C1CCCCC(C(=O)NCc2ccco2)N1 (centres undefined),inactive
9,COCC1CN(C)CC12CCN(Cc1ccc(F)c(Cl)c1)CC2 (centres undefined),"inconclusive: 50.1 µM [inhibitor, partial curve, poor fit]"
10,CN1C(=O)[C@@H]2C[C@@H](CN2Cc2ccc(Cl)cc2)Oc2ccccc21,"inconclusive: 100 µM [inhibitor, partial curve, poor fit]"
11,Cc1cc(C(=O)N2CCC(N3C[C@H](Oc4ccccc4)[C@@H]3c3ccncc3)CC2)n(C)n1,inactive
12,O=C(CC(c1ccccc1)c1cccc(Cl)c1)NC1CCC(O)CC1 (centres undefined),"inconclusive: 79.4 µM [inhibitor, single point]"
13,CC(=O)NC1CCN(C(=O)c2coc(COc3ccc4c(c3)OCO4)n2)C1 (centres undefined),inactive
14,CCOC(=O)[C@H]1C[C@]2(CCCCN(CCO)C2=O)N(C(=O)c2cccc(C#N)c2)[C@H]1c1ccco1,"inconclusive: 70.8 µM [inhibitor, partial curve, poor fit]"
15,COCCNC(=O)CCc1c(C)nn(-c2cccc(C)c2)c1Oc1ccccc1C,"inconclusive: 44.7 µM [inhibitor, partial curve, poor fit]"
16,COc1cccc(CC(=O)N2CC(Oc3ccc(-c4noc(-c5ccncc5)n4)cc3)C2)c1,"inconclusive: 25.1 µM [inhibitor, partial curve]"
17,COC(=O)N(C)Cc1cccc(N2CCN(C(=O)c3c(Cl)cccc3Cl)CC2)c1F,"inconclusive: 44.7 µM [inhibitor, partial curve, poor fit]"
18,COc1ccc(-c2cc3c(=O)n(CCNC(=O)c4n[nH]c5c4CCCC5)ccn3n2)cc1,inactive
19,O=C1CCN(Cc2ccc(O)cc2)CCCC(c2nc(-c3cnccn3)no2)CCN1 (centres undefined),inactive
20,O=C(NC1CC1)c1ccccc1OC1CN(Cc2ccc(F)cc2Cl)C1,"inconclusive: 44.7 µM [inhibitor, partial curve, poor fit]"
21,O=C(Nc1ccc2[nH]ccc2c1)C1=NO[C@@H]2CN(c3ccccc3)C[C@H]12,"inconclusive: 56.2 µM [inhibitor, partial curve, poor fit]"
22,NC(=O)c1cccc(CN2CCC3(CC2)CC(c2ccccc2)=NO3)c1,inactive

row,Structure (SMILES),Potency
1,Cc1nc2n(c1C(=O)NCCc1ccccc1)CCC(Nc1ccc(F)cc1)C2 (centres undefined),"inconclusive: 89.1 µM [inhibitor, partial curve]"
2,O=C(CCC1CCN(C(=O)[C@H]2C[C@@H]3C=C[C@H]2C3)CC1)N1CCC(Cc2ccccc2)CC1,"inconclusive: 44.7 µM [inhibitor, partial curve]"
3,Cc1cc(C(=O)NCC2CC2)c2c(C3CCCNC3)noc2n1 (centres undefined),inactive
4,O=C(c1ccc(C(F)(F)F)cc1)N1CCn2c(nn(-c3ccncc3)c2=O)C1,"inconclusive: 44.7 µM [inhibitor, partial curve, poor fit]"
5,CCc1nc(-c2ccc(OC3CCN(C(=O)Cc4ccccc4F)C3)cc2)no1 (centres undefined),"inconclusive: 44.7 µM [inhibitor, partial curve, poor fit]"
6,COc1ccccc1Nc1ccnc(N2CCCC(C(=O)NCc3ccc(F)cc3)C2)n1 (centres undefined),active: 20 µM
7,O=[S+]([O-])(Nc1ccccc1)c1ccc2c(c1)OCCN(Cc1ccc(F)cn1)C2,"inconclusive: 63.1 µM [inhibitor, partial curve, poor fit]"
8,Cn1ncc2c(C(=O)NC3CCC3)cc(-c3ccccc3F)nc21,"inconclusive: 100 µM [inhibitor, partial curve, poor fit]"
9,Cn1c(C(=O)NCc2ccoc2)nc2nc(-c3ccccc3)c(Cl)cc21,"inconclusive: 39.8 µM [inhibitor, single point]"
10,CN1CCN(c2nc3c(c(=O)[nH]2)CCN(Cc2ccccc2Br)CC3)CC1,"inconclusive: 50.1 µM [inhibitor, partial curve, poor fit]"
11,O=C([C@@H]1OCCN(C2CC2)[C@H]1c1ccccc1)N1CCC(Cc2ccccc2)CC1,"inconclusive: 50.1 µM [inhibitor, partial curve, poor fit]"
12,Fc1ccc(CN2CCCC3(CC(c4cccc(C(F)(F)F)c4)=NO3)C2)cc1 (centres undefined),"inconclusive: 50.1 µM [inhibitor, partial curve, poor fit]"
13,CN1CCCC2(CCN(c3ccc(C#N)cn3)C2)C1=O (centres undefined),inactive
14,Cc1cc(CN2CCC(CO)(Cc3ccccc3Cl)CC2)cc(C)c1O,"inconclusive: 44.7 µM [inhibitor, partial curve, poor fit]"
15,CC1(C)[C@H]2CC[C@@H](CNC(=O)c3ccccn3)[C@@H]1C2,"inconclusive: 56.2 µM [inhibitor, partial curve, poor fit]"
16,Cc1ncc2n1C(=O)N(C1CCN(Cc3ccc(N(C)C)cc3)CC1)C2,inactive
17,CC(C)c1ccc(CN2CC[C@@H]3OCC(=O)N(C(C)C)[C@H]3CC2)cc1,"inconclusive: 39.8 µM [inhibitor, partial curve, poor fit]"
18,CS(=O)(=O)Nc1ccc(C2(C(=O)NCc3ccc(Cl)cc3)CCCCC2)cc1,"inconclusive: 50.1 µM [inhibitor, single point]"
19,Cc1ccc(C(CC(=O)N2CCC(C)CC2)c2cn(C)c3ccccc23)cc1 (centres undefined),inactive
20,COc1ccc(-c2ccc3nc(-c4cc(F)cc(F)c4F)oc3c2)c(OC)c1OC,"inconclusive: 31.6 µM [inhibitor, full curve]"
21,O=C1CC2(CCN(CC3CCCC3)C2)Nc2ccccc2N1 (centres undefined),inactive
22,CN(CCc1ccccn1)C(=O)c1cn(CCN2CCNCC2)nn1,inactive

row,Structure (SMILES),Potency
1,O=C(c1cccc(OC2CN(Cc3ccc(F)cc3F)C2)c1)N1CCCC1,"inconclusive: 50.1 µM [inhibitor, partial curve, poor fit]"
2,C#CCNC(=O)[C@@H]1CCCN1c1nccc(Nc2ccccc2OC)n1,inactive
3,CCOC(=O)C1CCN(C(=O)c2cn3cc(-c4cccc(C(F)(F)F)c4)sc3n2)CC1,inactive
4,Cn1c(C(=O)N2CCNc3cnc(Nc4cccc(C(F)(F)F)c4)nc3C2)cc2ccccc21,active: 39.8 µM
5,CS(=O)(=O)N1C[C@H]2CCN(C(=O)c3cc(F)ccc3F)C[C@H]21,inactive
6,COc1cc(CNCc2ccccc2C)ccc1OCC(O)CN1CCC(O)CC1 (centres undefined),"inconclusive: 50.1 µM [inhibitor, partial curve, poor fit]"
7,COc1ccc(CCNC(=O)c2ccc3nnc(C4CCCC4)n3c2)cc1,"inconclusive: 50.1 µM [inhibitor, partial curve, poor fit]"
8,CCNC(=O)N1CCC(c2nnc(CN3CCCC3)n2CC)CC1,inactive
9,COc1ccc(C(=O)NC2CCN(c3cc(-c4ccccc4)[nH]n3)CC2)cc1F,"inconclusive: 70.8 µM [inhibitor, single point]"
10,COc1ccc2c(c1)CCc1c-2n[nH]c1C(=O)N1CCc2c(nc3cc(-c4ccccc4)[nH]n3c2=O)C1,inactive
11,CCC(=O)N1CCN(c2nc3c(s2)CC(C(=O)O)CC3)CC1 (centres undefined),"inconclusive: 70.8 µM [inhibitor, single point]"
12,COc1ccc(C(=O)NC[C@@H]2C=C(C)[C@H](Cc3nc4ccncc4[nH]3)C[C@H]2C(C)C)cc1,"inconclusive: 79.4 µM [inhibitor, partial curve, poor fit]"
13,CCNC(=O)N1[C@@H](c2ccccc2)[C@@H](C(=O)OCC)C[C@]12CCCCN(CCOC)C2=O,"inconclusive: 70.8 µM [inhibitor, partial curve, poor fit]"
14,O=C1Nc2ccc(-c3cccc(C(F)(F)F)c3)cc2C(=O)N2CCN(C(=O)[C@@H]3CSCN3)C[C@H]12,"inconclusive: 70.8 µM [inhibitor, single point]"
15,CCc1nn(-c2ccc(F)cc2)c(Oc2ccccc2)c1CCC(=O)N(C)C(C)C,"inconclusive: 31.6 µM [inhibitor, full curve, poor fit]"
16,COCC1(C(=O)N2CCOC(c3ccc4cc(OC)ccc4c3)C2)CCC1 (centres undefined),"inconclusive: 56.2 µM [inhibitor, partial curve, poor fit]"
17,C[C@H](C(=O)N1Cc2ccccc2CC2(CCN(Cc3ccncc3)CC2)C1)c1ccccc1,"inconclusive: 70.8 µM [inhibitor, partial curve, poor fit]"
18,Cc1nn(-c2cccc(Br)c2)c(C)c1[C@@H]1C=C[C@@H](NC(=O)CC(C)(C)CC(=O)O)C1,"inconclusive: 89.1 µM [inhibitor, single point]"
19,Cc1ccc(Nc2ccnc(N3CCCC(C(=O)NC4CC4)C3)n2)cc1 (centres undefined),"inconclusive: 56.2 µM [inhibitor, partial curve, poor fit]"
20,COc1ccc(-c2noc([C@@H]3CCCN3C(=O)c3cccc(C)c3)n2)cc1OC,"inconclusive: 44.7 µM [inhibitor, partial curve, poor fit]"
